Laboratory results as given in PubChem BioAssay AID1671193 (National Center for Advancing Translational Sciences (NCATS), 2021).
In all, about 150,000 compounds went through this assay and about 180 (0.12%) were called active. Inconclusive means that the source gave no clear call. Such entries were picked first, then a sample of the others. Calls follow the shape of the dose curve; as a rule, active = well fitted cell-killing curve with a large enough effect; inconclusive = small, poorly fitted or top-dose-only effect, or effect the other way; inactive = flat fitted curve, though single readings scatter. Where the call is inconclusive, the potency comes from a doubtful curve fit.

Assay: GF-AFC viability counterscreen for inhibitors of alpha-synuclein gene (SNCA) expression; also: nearly all actives have a fitted effect of over 30% in size;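 as to activity change, negative = cytotoxicity: 0% = DMSO-treated cells and -100% = medium-only wells without cells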
Conditions: HEK-293-SNCA-luc viability, GF-AFC fluorescence, 24 h; activity change, negative = cytotoxicity: at 57.1 µM (top of the series) unless noted
In short: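 HEK-293-SNCA-luc cells (1500/well) plated 24 h, then exposed 24 h to a dilution series; GF-AFC added 30 min at 37C, fluorescence 405/540 nm; normalised to medium-only and DMSO wells, Hill fit.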
Potency is read from the fitted curve at half-maximal effect; tags tell the direction and shape of the fitted curve.

Row | SMILES | Potency | activity change, negative = cytotoxicity
1 | FC(F)(F)c1ccc(CN2CC[C@H](c3nc4ccc(C(F)(F)F)cc4[nH]3)C2)cc1 | inconclusive: 56.2 µM [cytotoxic, single point] | 
2 | COCc1nc(C2CCCN(C(=O)c3ccc(OC)cc3)C2)no1 (configuration not stated) |  | inactive: -2.71% [at 12.5 µM]
3 | Clc1ccc(-c2cnc([C@@H]3COCCN3Cc3c[nH]c4ccccc34)[nH]2)s1 | inconclusive: 56.2 µM [cytotoxic, single point] | 
4 | CCCN1C(=O)c2[nH]nc(-c3ccc(F)cc3)c2C1c1ccccn1 (configuration not stated) | inconclusive: 25.1 µM [cytotoxic, single point] | 
5 | Cc1ccc(OCC(=O)NCC2CCN(c3cnn(C)c(=O)c3)C2)cc1 (configuration not stated) |  | inactive: -4.77%
6 | CCc1ccc(C(=O)N2CCC(Oc3nccnc3N(C)C)C2)cc1 (configuration not stated) |  | inactive: -17.9%
7 | CNS(=O)(=O)CCc1ccc2[nH]cc(C3CCN(C)CC3)c2c1 | inconclusive: 1.12 µM [rising, partial curve, poor fit] | 
8 | O=C(NCCCc1ccccc1)C1CCN(c2ccnc3ccnn23)CC1 |  | inactive: -6.64%
9 | CCCCNC(=O)[C@@H]1Cc2ccccc2N1C(=O)[C@@H](N)CC | inconclusive: 0.0053 µM [cytotoxic, full curve, poor fit] | 
10 | c1ccc2c(-n3ccnc3)nc(-c3ccoc3)nc2c1 | inconclusive: 20 µM [cytotoxic, partial curve, poor fit] | 
11 | CO[C@H]1C(=O)N(C(C)C)[C@H]1C1CCN(C(=O)c2cccnc2C)CC1 | inconclusive: 7.08 µM [cytotoxic, single point] | 
12 | O=C(NCCCc1ccccc1)C1CCN(c2nccc(Nc3ccccc3F)n2)CC1 | inconclusive: 3.16 µM [cytotoxic, single point] | 
13 | Cc1nc(C)c(C(=O)N2CCC(Cc3noc(C4CC4)n3)C2)s1 (configuration not stated) | inconclusive: 35.5 µM [rising, partial curve, poor fit] | 
14 | O=C(Cc1cccc(Cl)c1)NCCNC(=O)c1cccc(-c2ccc(C(F)(F)F)cc2)c1 | inconclusive: 6.31 µM [cytotoxic, single point] | 
15 | O=C(Nc1nc2cccc(-c3ccc(CN4CCS(=O)(=O)CC4)cc3)n2n1)C1CC1 | inconclusive: 48.2 µM [cytotoxic, single point] | 
16 | Cc1cccc(-n2nc(C)c(CCC(=O)N3CCOCC3)c2Oc2ccccc2C)c1 | inconclusive: 31.6 µM [cytotoxic, partial curve] | 
17 | Cc1ccc(NC(=O)N2CCN(c3nc(N)nc4sc(-c5cccnc5)nc34)CC2)cc1 |  | inconclusive: -54.3% [cytotoxic]
18 | N[C@@H]1CCN(Cc2ccccc2OCc2ccc(Cl)cc2)C[C@H]1O |  | inactive: -14.4%
19 | COc1ccc(C(=O)NCC2Cn3cccc3CN2Cc2cccnc2)cc1 (configuration not stated) |  | inactive: -7.4%
20 | Cc1ccc(NC(=O)Cn2cc(S(=O)(=O)N3CCCC3)c(S(=O)(=O)N3CCCC3)c2)cc1C | inconclusive: 3.55 µM [cytotoxic, full curve, poor fit] | 
21 | COc1cccc(CNC(=O)C2CCN(C(=O)c3ccc(-c4cccc(OC)c4)cc3)CC2)c1 |  | inactive: 5.18% [at 12.5 µM]
22 | CCCN1C(=O)CCc2cc(NC(=O)c3ccc(C)s3)ccc21 | inconclusive: 28.2 µM [cytotoxic, single point] | 
23 | Cc1ccc(-c2ccc3nnc(CNC(=O)C4(c5ccccc5)CC4)n3n2)cc1 |  | inactive: -9.46%

Row | SMILES | Potency | activity change, negative = cytotoxicity
24 | COc1ccccc1NC(=O)C1=C(C)Nc2nc(-c3ccco3)nn2C1c1cccc(C)c1 (configuration not stated) | inconclusive: 10 µM [cytotoxic, partial curve, poor fit] | 
25 | O=C(NCc1ccc2c(c1)OCO2)C1CCN(C(=O)c2ncn3c2COC(c2ccccc2)C3)CC1 (configuration not stated) |  | inactive: 17.1%
26 | NC(=O)c1cccc(-c2cc(-c3cccnc3)c3cncn3c2)c1 |  | inactive: -9.68% [at 87.6 µM]
27 | Cc1ccccc1OCC(=O)Nc1ccc2[nH]c(=O)sc2c1 | inconclusive: 25.1 µM [cytotoxic, single point] | 
28 | COc1ccc(-c2ccccc2NC(=O)C2CCCN(C3CCOCC3)C2)cc1 (configuration not stated) |  | inactive: -5.28%
29 | COc1ccc(C)cc1Nc1c2c(nc3ccccc13)CCC2 | inconclusive: 6.31 µM [cytotoxic, partial curve, poor fit] | 
30 | CC(C)C[C@H](CC(=O)O)C(=O)N[C@@H](Cc1c[nH]c2ccccc12)C(=O)N[C@@H](C)c1ccccc1 | inconclusive: 0.0024 µM [cytotoxic, full curve, poor fit] | 
31 | CS(=O)(=O)c1ncc(Cl)c(C(=O)N(Cc2ccc(Cl)cc2)Cc2ccco2)n1 | active: 2.51 µM | 
32 | COc1cc2c(cc1OC)C(C[C@H]1CN(C(=O)C(=O)O)CC[C@H]1CC(=O)O)=NCC2 |  | inactive: 22.4% [at 87.6 µM]
33 | Cc1cccc(C(=O)N2CCC3(CC2)CCC(O)(CN(C)C)CC3)c1 |  | inactive: -1.34%
34 | C=C1C(=O)OC2/C=C(\CO)CC/C=C(\C=O)C(O)C(OC(=O)C(C)CC)C12 (configuration not stated) |  | inconclusive: -46.1% [cytotoxic]
35 | O=C(Cn1c(-c2cccs2)cc2ccccc21)NCCCN1CCN(c2cccc(Cl)c2)CC1 | inconclusive: 39.8 µM [cytotoxic, partial curve, poor fit] | 
36 | O=C(c1ccc(-c2cccs2)cc1)N1CCC(N[S+](=O)([O-])c2ccccc2)CC1 |  | inactive: -0.608% [at 12.5 µM]
37 | O=C(NCCc1ccc(Cl)cc1)c1nc(-c2ccc(Cl)cc2Cl)c2cnccn12 |  | inactive: -0.278%
38 | O=C(NC1CC1)c1cc(-c2ccc(F)cc2)c2nncn2n1 |  | inactive: -6.2% [at 87.6 µM]
39 | CCOC(=O)c1cc2c(=O)n3ccccc3nc2n(CC(C)C)c1=NC(=O)C(C)(C)Oc1ccc(Cl)cc1 | inconclusive: 7.08 µM [rising, partial curve, poor fit] | 
40 | COC(=O)CNC(=O)c1nc(-c2cccc(C(F)(F)F)c2)c2ccccn12 |  | inactive: 5.87%
41 | O=C(NCCc1ccc(Cl)cc1)c1nc2sccn2c1-c1ccncc1 | inconclusive: 8.91 µM [cytotoxic, single point] | 
42 | Cc1cccc(-n2nc(C)c(CCC(=O)N3CCOCC3)c2Oc2ccc(F)cc2F)c1 | inconclusive: 39.8 µM [cytotoxic, single point] | 
43 | CCc1nc(NC(CCn2cncn2)c2ccccc2)c2cnn(C)c2n1 (configuration not stated) |  | inactive: -7.29%
44 | CCOC(=O)[C@H](CCc1ccccc1)N[C@H]1CCc2ccccc2N(CC(=O)O)C1=O | inconclusive: 42.9 µM [cytotoxic, single point] | 
45 | O=C(NC1CCCN(c2cc(-c3ccccc3)[nH]n2)C1)c1cccc2[nH]ccc12 (configuration not stated) | inconclusive: 39.8 µM [cytotoxic, single point] | 
46 | O=C(O)C1(c2ccccc2)CCN(S(=O)(=O)c2cccs2)CC1 |  | inactive: -1.63%

Row | SMILES | Potency | activity change, negative = cytotoxicity
47 | COc1cccc(CNC(=O)c2c(C)noc2-c2cccs2)c1 | inconclusive: 2.82 µM [rising, full curve, poor fit] | 
48 | CCCOc1cccc(C(=O)Nc2cc(-c3nc4ccccc4[nH]3)ccc2C)c1 | inconclusive: 39.8 µM [cytotoxic, single point] | 
49 | COc1cccc(Nc2nc(-c3ccccc3)no2)c1 |  | inactive: -4.89%
50 | O=C(NCCN1CCOCC1)c1ccc2nccn2c1 |  | inactive: 1.16% [at 87.6 µM]
51 | CC(C)(C)C1CCc2nc(NC(=O)c3cccc(Cl)c3)sc2C1 (configuration not stated) |  | inactive: -12.9%
52 | Cc1cccc(OCCc2noc(C3CN(C(=O)CCc4ccccc4)C3)n2)c1 | inconclusive: 5.01 µM [cytotoxic, single point] | 
53 | COc1ccc(-n2c(=O)c(C(=O)NCc3ccc4c(c3)OCO4)nc3cccnc32)cc1 |  | inactive: -2.98%
54 | N#CCCn1c(=O)c(-c2cccs2)nc2cnc(N3CCOCC3)nc21 | inconclusive: 5.62 µM [rising, full curve] | 
55 | Cn1cc(CC(=O)N2CCCc3ncc(C(=O)N4CCC(c5ccccc5)CC4)cc32)c2ccccc21 | inconclusive: 28.2 µM [cytotoxic, single point] | 
56 | Cc1oc(-c2ccccc2Cl)nc1CS(=O)CC(=O)N1CCN(c2cccc(C(F)(F)F)c2)CC1 (configuration not stated) | inconclusive: 39.8 µM [cytotoxic, single point] | 
57 | O=C(C1CCCC1)N1CCC(C2CCN(Cc3cccc(F)c3F)CC2)C1 (configuration not stated) | inconclusive: 12.6 µM [cytotoxic, partial curve] | 
58 | Cc1ccc(C(=O)N2CCCC(C(=O)N3CCC4(CC3)CC(=O)Nc3ccccc3O4)C2)cc1 (configuration not stated) |  | inactive: -10.3%
59 | O=C(c1ccc(Cl)cc1)N1CC2(CCN(Cc3ccccn3)CC2)Cc2ccccc21 | inconclusive: 39.8 µM [cytotoxic, partial curve, poor fit] | 
60 | CC(C)(C)C(=O)NC1CCN(Cc2ccc(-c3ccsc3)cc2)C1 (configuration not stated) |  | inactive: 3.35%
61 | CCNC(=O)N[C@@H]1C=C[C@@H](c2c(C)nn(-c3ccc(C(C)(C)C)cc3)c2C)C1 | inconclusive: 20 µM [cytotoxic, partial curve, poor fit] | 
62 | C[C@@H](N[C@H]1CCCC[C@@H]1NC(=O)c1ccc(Cl)cc1)c1cccc2ccccc12 | inconclusive: 23.8 µM [cytotoxic, single point] | 
63 | CC[C@H]1CN(S(C)(=O)=O)CC[C@H]1CC(=O)NCCSC |  | inactive: 3.08% [at 87.6 µM]
64 | O=C(NC1CCCN(Cc2ccc(-c3cncnc3)cc2)C1)c1ccncc1 (configuration not stated) |  | inactive: -1.89% [at 12.5 µM]
65 | COc1ccc(Nc2nc(-c3c(C)noc3C)cc3cc(CN(C)C)oc23)cn1 | inconclusive: 35.5 µM [cytotoxic, partial curve, poor fit] | 
66 | COc1ccc(-c2nc3cnc(Nc4cccc(OC)c4)nc3n(C3CC3)c2=O)cc1 | inconclusive: 1.41 µM [rising, full curve, poor fit] | 
67 | Cn1cc(-c2ccccc2OC(F)(F)F)c2nc(CN3CCNC(=O)C3)cn2c1=O | inconclusive: 3.98 µM [rising, full curve, poor fit] | 
